# Measurements taken from the supplement of paper PMC8728848.
# Some of the results follow.
# Legend:
# Assay in all cases: glycan array binding signal (z-score within array); higher = stronger binding
# Conditions in all cases: glycan notation: IUPAC condensed, linker removed
# Gal(a1-3)Gal(b1-4)GlcNAc = target: Gal(a1-3)Gal(b1-4)GlcNAc
# Summary of the method: (§1)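 Negative Z-scores can be read as non-binding. The Z-score is calculated within each array and then averaged across arrays of one protein sequence at different concentrations or buffers and across linkers. Arrays, 3228 in all, were curated from the Consortium for Functional Glycomics database and kept only where the protein sequence was available.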
# [1] = target: Gal(a1-3)Gal(b1-4)GlcNAc(b1-2)Man
# Summary of the method: as §1
# [2] = target: Gal(a1-3)Gal(b1-4)GlcNAc(b1-2)Man(a1-3)[Gal(a1-3)Gal(b1-4)GlcNAc(b1-2)Man(a1-6)]Man(b1-4)GlcNAc(b1-4)GlcNAc
# Summary of the method: as §1
# [3] = target: Gal(a1-3)Gal(b1-4)GlcNAc(b1-3)GalNAc
# Summary of the method: as §1
# [4] = target: Gal(a1-3)Gal(b1-4)GlcNAc(b1-6)GalNAc
# Summary of the method: as §1
# [5] = target: Gal(a1-3)Gal(b1-4)[Fuc(a1-3)]GlcNAc
# Summary of the method: as §1
# [6] = target: Gal(a1-3)Gal(b1-4)[Fuc(a1-3)]GlcNAc(b1-2)Man(a1-3)[Gal(a1-3)Gal(b1-4)[Fuc(a1-3)]GlcNAc(b1-2)Man(a1-6)]Man(b1-4)GlcNAc(b1-4)GlcNAc
# Summary of the method: as §1
# Gal(a1-3)GalNAc = target: Gal(a1-3)GalNAc
# Summary of the method: as §1
# [7] = target: Gal(a1-3)[Gal(a1-4)]Gal(b1-4)GlcNAc
# Summary of the method: as §1
# [8] = target: Gal(a1-4)Gal(b1-3)GlcNAc(b1-2)Man(a1-3)[Gal(a1-4)Gal(b1-3)GlcNAc(b1-2)Man(a1-6)]Man(b1-4)GlcNAc(b1-4)GlcNAc
# Summary of the method: as §1
# Gal(a1-4)Gal(b1-4)Glc = target: Gal(a1-4)Gal(b1-4)Glc
# Summary of the method: as §1
# Gal(a1-4)Gal(b1-4)GlcNAc = target: Gal(a1-4)Gal(b1-4)GlcNAc
# Summary of the method: as §1
# [9] = target: Gal(a1-4)Gal(b1-4)GlcNAc(b1-2)Man(a1-3)[Gal(a1-4)Gal(b1-4)GlcNAc(b1-2)Man(a1-6)]Man(b1-4)GlcNAc(b1-4)GlcNAc
# Summary of the method: as §1
# [10] = target: Gal(a1-4)Gal(b1-4)GlcNAc(b1-3)Gal(b1-4)Glc
# Summary of the method: as §1
# Gal(a1-4)GlcNAc = target: Gal(a1-4)GlcNAc
# Summary of the method: as §1
# Gal(a1-6)Glc = target: Gal(a1-6)Glc
# Summary of the method: as §1
# Gal(b1-2)Gal = target: Gal(b1-2)Gal
# Summary of the method: as §1
# Gal(b1-3)Gal = target: Gal(b1-3)Gal
# Summary of the method: as §1
# Gal(b1-3)Gal(b1-4)GlcNAc = target: Gal(b1-3)Gal(b1-4)GlcNAc
# Summary of the method: as §1
# Gal(b1-3)GalNAc = target: Gal(b1-3)GalNAc
# Summary of the method: as §1
# [11] = target: Gal(b1-3)GalNAc(a1-3)[Fuc(a1-2)]Gal(b1-4)Glc
# Summary of the method: as §1
# [12] = target: Gal(b1-3)GalNAc(a1-3)[Fuc(a1-2)]Gal(b1-4)GlcNAc
# Summary of the method: as §1
# Gal(b1-3)GalNAc(b1-3)Gal = target: Gal(b1-3)GalNAc(b1-3)Gal
# Summary of the method: as §1
# [13] = target: Gal(b1-3)GalNAc(b1-3)Gal(a1-4)Gal(b1-4)Glc
# Summary of the method: as §1
# [14] = target: Gal(b1-3)GalNAc(b1-4)Gal(b1-4)Glc
# Summary of the method: as §1
# [15] = target: Gal(b1-3)GalNAc(b1-4)[Neu5Ac(a2-3)]Gal(b1-4)Glc
# Summary of the method: as §1
# Gal(b1-3)GlcNAc = target: Gal(b1-3)GlcNAc
# Summary of the method: as §1
# [16] = target: Gal(b1-3)GlcNAc(a1-3)Gal(b1-4)GlcNAc
# Summary of the method: as §1
# [17] = target: Gal(b1-3)GlcNAc(a1-6)Gal(b1-4)GlcNAc
# Summary of the method: as §1
# Gal(b1-3)GlcNAc(b1-2)Man = target: Gal(b1-3)GlcNAc(b1-2)Man
# Summary of the method: as §1
# [18] = target: Gal(b1-3)GlcNAc(b1-2)Man(a1-3)[Gal(b1-3)GlcNAc(b1-2)Man(a1-6)]Man(b1-4)GlcNAc(b1-4)GlcNAc
# Summary of the method: as §1
# [19] = target: Gal(b1-3)GlcNAc(b1-2)Man(a1-3)[Gal(b1-3)GlcNAc(b1-2)Man(a1-6)]Man(b1-4)GlcNAc(b1-4)[Fuc(a1-6)]GlcNAc
# Summary of the method: as §1
# [20] = target: Gal(b1-3)GlcNAc(b1-2)Man(a1-3)[GlcNAc(b1-4)][Gal(b1-3)GlcNAc(b1-2)Man(a1-6)]Man(b1-4)GlcNAc(b1-4)GlcNAc
# Summary of the method: as §1
# [21] = target: Gal(b1-3)GlcNAc(b1-2)[Gal(b1-3)GlcNAc(b1-6)]Man(a1-6)[Gal(b1-3)GlcNAc(b1-2)Man(a1-3)]Man(b1-4)GlcNAc(b1-4)GlcNAc
# Summary of the method: as §1
# [22] = target: Gal(b1-3)GlcNAc(b1-3)Gal(b1-3)GlcNAc
# Summary of the method: as §1
# [23] = target: Gal(b1-3)GlcNAc(b1-3)Gal(b1-4)Glc
# Summary of the method: as §1
# [24] = target: Gal(b1-3)GlcNAc(b1-3)Gal(b1-4)GlcNAc
# Summary of the method: as §1
# [25] = target: Gal(b1-3)GlcNAc(b1-3)Gal(b1-4)GlcNAc(b1-2)Man(a1-3)[Gal(b1-3)GlcNAc(b1-3)Gal(b1-4)GlcNAc(b1-2)Man(a1-6)]Man(b1-4)GlcNAc(b1-4)GlcNAc
# Summary of the method: as §1
# [26] = target: Gal(b1-3)GlcNAc(b1-3)Gal(b1-4)GlcNAc(b1-2)[Gal(b1-3)GlcNAc(b1-3)Gal(b1-4)GlcNAc(b1-6)]Man(a1-6)[Gal(b1-3)GlcNAc(b1-3)Gal(b1-4)GlcNAc(b1-2)Man(a1-3)]Man(b1-4)GlcNAc(b1-4)[Fuc(a1-6)]GlcNAc
# Summary of the method: as §1
# [27] = target: Gal(b1-3)GlcNAc(b1-3)Gal(b1-4)GlcNAc(b1-3)Gal(b1-4)GlcNAc(b1-2)[Gal(b1-3)GlcNAc(b1-3)Gal(b1-4)GlcNAc(b1-3)Gal(b1-4)GlcNAc(b1-6)]Man(a1-6)[Gal(b1-3)GlcNAc(b1-3)Gal(b1-4)GlcNAc(b1-3)Gal(b1-4)GlcNAc(b1-2)Man(a1-3)]Man(b1-4)GlcNAc(b1-4)[Fuc(a1-6)]GlcNAc
# Summary of the method: as §1
# [28] = target: Gal(b1-3)GlcNAc(b1-3)Gal(b1-4)GlcNAc(b1-6)[Gal(b1-3)GlcNAc(b1-3)]Gal(b1-4)Glc
# Summary of the method: as §1
# [29] = target: Gal(b1-3)GlcNAc(b1-3)Gal(b1-4)[Fuc(a1-3)]GlcNAc
# Summary of the method: as §1
# [30] = target: Gal(b1-3)GlcNAc(b1-3)Gal(b1-4)[Fuc(a1-3)]GlcNAc(b1-6)[Gal(b1-3)GlcNAc(b1-3)]Gal(b1-4)Glc
# Summary of the method: as §1
# [31] = target: Gal(b1-3)GlcNAc(b1-3)GalNAc
# Summary of the method: as §1
# [32] = target: Gal(b1-3)GlcNAc(b1-6)Gal(b1-4)GlcNAc
# Summary of the method: as §1
binder,measurement,setting,value
"BC2LB (Burholderia cenocepacia), B4EH85_BURCJ (protein) MGSSHHHHHHSSGENLYFQGHMSQPFTHDDLYALLQLAGNDATAVQANGDQAVLDRMRQFMTAQLVEKLPQYDVFVDIATIPYSFDVGSWQNKVKTDAAGEVVACTVTWAGAPGVLPGAAAKFGVGAVVNYFSKATPH",glycan array binding signal (z-score),Gal(a1-3)Gal(b1-4)GlcNAc,-0.309
same,glycan array binding signal (z-score),[1],0.156
same,glycan array binding signal (z-score),[2],-0.185
same,glycan array binding signal (z-score),[3],-0.291
same,glycan array binding signal (z-score),[4],-0.168
same,glycan array binding signal (z-score),[5],-0.287
same,glycan array binding signal (z-score),[6],0.053
same,glycan array binding signal (z-score),Gal(a1-3)GalNAc,-0.23
same,glycan array binding signal (z-score),[7],-0.338
same,glycan array binding signal (z-score),[8],-0.211
same,glycan array binding signal (z-score),Gal(a1-4)Gal(b1-4)Glc,0.199
same,glycan array binding signal (z-score),Gal(a1-4)Gal(b1-4)GlcNAc,-0.275
same,glycan array binding signal (z-score),[9],-0.047
same,glycan array binding signal (z-score),[10],0.826
same,glycan array binding signal (z-score),Gal(a1-4)GlcNAc,-0.101
same,glycan array binding signal (z-score),Gal(a1-6)Glc,-0.339
same,glycan array binding signal (z-score),Gal(b1-2)Gal,0.168
same,glycan array binding signal (z-score),Gal(b1-3)Gal,-0.185
same,glycan array binding signal (z-score),Gal(b1-3)Gal(b1-4)GlcNAc,-0.06
same,glycan array binding signal (z-score),Gal(b1-3)GalNAc,-0.261
same,glycan array binding signal (z-score),[11],-0.165
same,glycan array binding signal (z-score),[12],-0.262
same,glycan array binding signal (z-score),Gal(b1-3)GalNAc(b1-3)Gal,-0.301
same,glycan array binding signal (z-score),[13],0.079
same,glycan array binding signal (z-score),[14],-0.152
same,glycan array binding signal (z-score),[15],-0.226
same,glycan array binding signal (z-score),Gal(b1-3)GlcNAc,-0.24
same,glycan array binding signal (z-score),[16],-0.314
same,glycan array binding signal (z-score),[17],-0.227
same,glycan array binding signal (z-score),Gal(b1-3)GlcNAc(b1-2)Man,0.003
same,glycan array binding signal (z-score),[18],-0.185
same,glycan array binding signal (z-score),[19],-0.007
same,glycan array binding signal (z-score),[20],0.126
same,glycan array binding signal (z-score),[21],0.077
same,glycan array binding signal (z-score),[22],-0.203
same,glycan array binding signal (z-score),[23],-0.223
same,glycan array binding signal (z-score),[24],-0.324
same,glycan array binding signal (z-score),[25],0.26
same,glycan array binding signal (z-score),[26],-0.01
same,glycan array binding signal (z-score),[27],-0.08
same,glycan array binding signal (z-score),[28],-0.264
same,glycan array binding signal (z-score),[29],-0.255
same,glycan array binding signal (z-score),[30],-0.264
same,glycan array binding signal (z-score),[31],-0.408
same,glycan array binding signal (z-score),[32],-0.219
